Laboratory results reported in publication PMC13233820, “Recruitment of Mre11 to recombination sites during meiosis” (Nature Communications, 2026).
Numbering of substitutions follows the chain as printed. These are yes or no findings as the source states them, for the method shown. Some binding calls cover weakened binding; strength is not graded here. For some assays here: Sequences can lack the tags named with a protein. Blank lines part the entries; values can stand above or below the binder they belong to.

What was measured:
[1] = molecular target: T1, eGFP-Mre11-10xHis (S. cerevisiae (SK1)) (UniProt P32829); test: co-purification (sequential Ni-NTA and anti-FLAG affinity); eGFP-Mre11-10xHis, Rad50 and Xrs2-2xFLAG co-expressed in Sf9; soluble extract over Ni-NTA resin, then anti-FLAG M2 affinity gel
T1 sequence: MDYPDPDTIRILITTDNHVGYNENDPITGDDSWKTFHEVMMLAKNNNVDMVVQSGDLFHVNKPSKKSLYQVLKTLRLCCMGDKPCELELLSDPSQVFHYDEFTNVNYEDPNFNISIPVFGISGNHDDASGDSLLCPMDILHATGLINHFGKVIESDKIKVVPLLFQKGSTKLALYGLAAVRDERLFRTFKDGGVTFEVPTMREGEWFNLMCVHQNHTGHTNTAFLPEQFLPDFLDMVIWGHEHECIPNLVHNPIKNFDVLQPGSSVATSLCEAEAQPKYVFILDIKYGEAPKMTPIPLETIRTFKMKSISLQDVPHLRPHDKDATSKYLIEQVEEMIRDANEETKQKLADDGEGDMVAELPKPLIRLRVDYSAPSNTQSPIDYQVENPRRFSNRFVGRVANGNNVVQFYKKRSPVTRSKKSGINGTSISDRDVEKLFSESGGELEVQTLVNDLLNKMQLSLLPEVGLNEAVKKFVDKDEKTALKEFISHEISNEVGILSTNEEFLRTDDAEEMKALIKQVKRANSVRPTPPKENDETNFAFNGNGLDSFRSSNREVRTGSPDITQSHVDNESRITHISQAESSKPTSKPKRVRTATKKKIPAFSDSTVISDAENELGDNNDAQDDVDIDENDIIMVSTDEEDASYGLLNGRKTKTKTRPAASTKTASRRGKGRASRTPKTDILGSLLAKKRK

[2] = molecular target: T2, Mer2, full length, two-hybrid bait (pGBDU-C1-Mer2) (S. cerevisiae) (UniProt P21651); test: two-hybrid; pGBDU-C1 bait (Mer2) and pGAD-C1 prey (Mre11) co-transformed into yWL365; dilution series on SC-Leu-Ura-His + 25 mM 3-AT, 4-5 days at 30 °C
T2 sequence: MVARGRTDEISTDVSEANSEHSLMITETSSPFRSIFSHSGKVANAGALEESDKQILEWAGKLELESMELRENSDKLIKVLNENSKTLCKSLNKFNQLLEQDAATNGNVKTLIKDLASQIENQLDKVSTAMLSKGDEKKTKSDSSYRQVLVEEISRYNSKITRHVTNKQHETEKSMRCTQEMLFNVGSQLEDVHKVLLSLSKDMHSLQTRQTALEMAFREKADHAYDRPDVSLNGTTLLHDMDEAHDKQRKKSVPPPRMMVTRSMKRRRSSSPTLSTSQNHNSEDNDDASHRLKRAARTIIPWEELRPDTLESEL

B1: Rad50 (protein, UniProt P12753 1-1312)
chain: MSAIYKLSIQGIRSFDSNDRETIEFGKPLTLIVGMNGSGKTTIIECLKYATTGDLPPNSKGGVFIHDPKITGEKDIRAQVKLAFTSANGLNMIVTRNIQLLMKKTTTTFKTLEGQLVAINNSGDRSTLSTRSLELDAQVPLYLGVPKAILEYVIFCHQEDSLWPLSEPSNLKKKFDEIFQAMKFTKALDNLKSIKKDMSVDIKLLKQSVEHLKLDKDRSKAMKLNIHQLQTKIDQYNEEVSEIESQLNEITEKSDKLFKSNQDFQKILSKVENLKNTKLSISDQVKRLSNSIDILDLSKPDLQNLLANFSKVLMDKNNQLRDLETDISSLKDRQSSLQSLSNSLIRRQGELEAGKETYEKNRNHLSSLKEAFQHKFQGLSNIENSDMAQVNHEMSQFKAFISQDLTDTIDQFAKDIQLKETNLSDLIKSITVDSQNLEYNKKDRSKLIHDSEELAEKLKSFKSLSTQDSLNHELENLKTYKEKLQSWESENIIPKLNQKIEEKNNEMIILENQIEKFQDRIMKTNQQADLYAKLGLIKKSINTKLDELQKITEKLQNDSRIRQVFPLTQEFQRADLEMDFQKLFINMQKNIAINNKKMHELDRRYTNALYNLNTIEKDLQDNQKSKEKVIQLLSENLPEDCTIDEYNDVLEETELSYKTALENLKMHQTTLEFNRKALEIAERDSCCYLCSRKFENESFKSKLLQELKTKTDANFEKTLKDTVQNEKEYLHSLRLLEKHIITLNSINEKIDNSQKCLEKAKEETKTSKSKLDELEVDSTKLKDEKELAESEIRPLIEKFTYLEKELKDLENSSKTISEELSIYNTSEDGIQTVDELRDQQRKMNDSLRELRKTISDLQMEKDEKVRENSRMINLIKEKELTVSEIESSLTQKQNIDDSIRSKRENINDIDSRVKELEARIISLKNKKDEAQSVLDKVKNERDIQVRNKQKTVADINRLIDRFQTIYNEVVDFEAKGFDELQTTIKELELNKAQMLELKEQLDLKSNEVNEEKRKLADSNNEEKNLKQNLELIELKSQLQHIESEISRLDVQNAEAERDKYQEESLRLRTRFEKLSSENAGKLGEMKQLQNQIDSLTHQLRTDYKDIEKNYHKEWVELQTRSFVTDDIDVYSKALDSAIMKYHGLKMQDINRIIDELWKRTYSGTDIDTIKIRSDEVSSTVKGKSYNYRVVMYKQDVELDMRGRCSAGQKVLASIIIRLALSETFGANCGVIALDEPTTNLDEENIESLAKSLHNIINMRRHQKNFQLIVITHDEKFLGHMNAAAFTDHFFKVKRDDRQKSQIEWVDINRVTY
binding [1]: binds

B2: Xrs2-2xFlag (protein, UniProt P33301 1-854)
chain: MWVVRYQNTLEDGSISFISCCLQAFKTYSIGRSSKNPLIIKNDKSISRQHITFKWEINNSSDLKHSSLCLVNKGKLTSLNKKFMKVGETFTINASDVLKSTIIELGTTPIRIEFEWINEVWNIPPHLTQFRTMLSEYGISTEISINDIPANLMISDYPKSEDNSIRELYALVSTIPMKKSRFLMELCNTLLPTSKTNLKFDEMWNDMISNPEYNVFDFDPNILLSKFMRLNNIRVLTTIKSEPRLSSLLRTFNINLFAFDNIDSLYKYVDSLEASTEYLILTTTDKKENGKILCTIKTMLTSIIDGTLSAVINMKGASSRTLDNGKFDQISEGMSTILKTSRAPEVEASPVVSKKRKLNRRRVLPLDSLDFFAGGLSTKTLSENRSLTDAKRLNCGAESKTVISSPNIAEADEKHAPFLQNALKPTEDIGKKSGHSSPGAIIVSSPNLGTVNTSEDSLDKSLQSHKLPQPSLPEVAGIGSQTISSNSADYETAAVNSMDDAEVTKNFRVNHHQNIEQPSKNIRKLSNYSREISSPLQENCKSPVKELSIKEKSGTPHAFVEAIQETKNREVKRVKSTIVELKDEELSEEAINQLKNLAIVEPSNNLLRKSFDSEGNKTSRTTEKWENSLMEPEWHKRKNFKTFVKVRPKSKAHKEEGKNNTQSSDFIRNAAFLITRNYVPLKKYSKKDTTTKWGTEENEDMFALTEMERFGSNTFMSDNINSNTIQKRSQALNRFTNEDSSNEGEEDSFSFSRCSGTAASVQPLKNKIFITDEDDLGDIDDKSDRLNHRENNRNLFVVKEMNLRPNLSEECSKQSRHSRSATSRSRGSFGASNNGDGDDDDDDGPKFTFKRRKG
binding [1]: binds

B4: Mre11-SIM3 mutant, two-hybrid prey (pGAD-C1-Mre11-SIM3) (protein, UniProt P32829 1-692)
chain: T1 sequence with I633A, I634A, M635A, V636A, S637A
binding [2]: binds

Further lines, results first:

binding [2]: binds
B3: Mre11, full length, two-hybrid prey (pGAD-C1-Mre11) (protein, UniProt P32829 1-692)
chain: T1 sequence

binding [2]: no binding
B5: Mre11-LLK, two-hybrid prey (pGAD-C1-Mre11-LLK) (protein, UniProt P32829 1-692)
chain: T1 sequence with L683A, L686A, K690A
